Measurements from paper PMC4634149.
No constants are given. Whether binding was seen depends on the method and setting. For some assays here: In cells and extracts the contact can be indirect. Some results given as binding are weak or reduced against the parent protein; the word gives no strength. For some assays here: Sequences can lack the tags named with a protein.

T1: GST-AIP1 (full-length GST::AIP1) (Arabidopsis thaliana) (UniProt Q8H0V4)
T1 sequence: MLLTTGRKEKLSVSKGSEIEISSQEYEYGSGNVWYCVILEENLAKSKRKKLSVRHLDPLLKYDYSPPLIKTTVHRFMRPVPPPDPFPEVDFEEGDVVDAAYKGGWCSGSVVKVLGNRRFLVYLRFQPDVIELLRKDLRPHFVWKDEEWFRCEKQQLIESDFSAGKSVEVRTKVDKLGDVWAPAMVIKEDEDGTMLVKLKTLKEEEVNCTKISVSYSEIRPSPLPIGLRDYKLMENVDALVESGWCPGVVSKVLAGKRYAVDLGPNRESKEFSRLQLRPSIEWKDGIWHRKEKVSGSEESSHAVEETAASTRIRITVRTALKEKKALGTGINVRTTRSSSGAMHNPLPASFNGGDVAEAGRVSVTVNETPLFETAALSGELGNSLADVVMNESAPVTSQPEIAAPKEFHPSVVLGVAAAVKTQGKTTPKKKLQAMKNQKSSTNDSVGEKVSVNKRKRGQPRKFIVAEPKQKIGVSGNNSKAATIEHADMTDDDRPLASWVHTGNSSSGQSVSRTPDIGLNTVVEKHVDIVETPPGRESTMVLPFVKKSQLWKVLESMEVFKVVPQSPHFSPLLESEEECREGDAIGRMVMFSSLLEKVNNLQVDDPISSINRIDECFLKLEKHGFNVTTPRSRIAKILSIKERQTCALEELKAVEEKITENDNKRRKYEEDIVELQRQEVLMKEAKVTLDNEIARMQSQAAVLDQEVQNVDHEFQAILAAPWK

T2: C-terminal portion of AIP1 containing the DUF724 domain (Arabidopsis thaliana) (UniProt Q8H0V4)
T2 sequence: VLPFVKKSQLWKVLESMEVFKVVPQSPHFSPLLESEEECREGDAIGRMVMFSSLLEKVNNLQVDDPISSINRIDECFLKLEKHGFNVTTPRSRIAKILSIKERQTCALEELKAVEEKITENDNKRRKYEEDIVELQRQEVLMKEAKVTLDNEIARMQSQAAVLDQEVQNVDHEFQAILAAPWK


Biological target: T1, GST-AIP1 (full-length GST::AIP1) (Arabidopsis thaliana)
Assay: pull-down; in vitro GST pulldown of bacterially expressed recombinant GST-AIP1 with HIS-tagged proteins; immunoblot with anti-ABAP1 or anti-HIS

| Binder | binding |
| --- | --- |
| HIS-AIP1 (protein, UniProt Q8H0V4 1-722) MLLTTGRKEKLSVSKGSEIEISSQEYEYGSGNVWYCVILEENLAKSKRKKLSVRHLDPLLKYDYSPPLIKTTVHRFMRPVPPPDPFPEVDFEEGDVVDAAYKGGWCSGSVVKVLGNRRFLVYLRFQPDVIELLRKDLRPHFVWKDEEWFRCEKQQLIESDFSAGKSVEVRTKVDKLGDVWAPAMVIKEDEDGTMLVKLKTLKEEEVNCTKISVSYSEIRPSPLPIGLRDYKLMENVDALVESGWCPGVVSKVLAGKRYAVDLGPNRESKEFSRLQLRPSIEWKDGIWHRKEKVSGSEESSHAVEETAASTRIRITVRTALKEKKALGTGINVRTTRSSSGAMHNPLPASFNGGDVAEAGRVSVTVNETPLFETAALSGELGNSLADVVMNESAPVTSQPEIAAPKEFHPSVVLGVAAAVKTQGKTTPKKKLQAMKNQKSSTNDSVGEKVSVNKRKRGQPRKFIVAEPKQKIGVSGNNSKAATIEHADMTDDDRPLASWVHTGNSSSGQSVSRTPDIGLNTVVEKHVDIVETPPGRESTMVLPFVKKSQLWKVLESMEVFKVVPQSPHFSPLLESEEECREGDAIGRMVMFSSLLEKVNNLQVDDPISSINRIDECFLKLEKHGFNVTTPRSRIAKILSIKERQTCALEELKAVEEKITENDNKRRKYEEDIVELQRQEVLMKEAKVTLDNEIARMQSQAAVLDQEVQNVDHEFQAILAAPWK | binds |

Biological target: T2, C-terminal portion of AIP1 containing the DUF724 domain (Arabidopsis thaliana)
Assay: two-hybrid; S. cerevisiae PJ694 co-transformed; selection on -leu/-trp/-his or -leu/-trp/-his/-ade, 3 days at 30 °C; C-terminal portion of AIP1 (DUF724) fused with GAL4 AD against GAL4 DBD fusions (Additional File 4); Additional File 10 calls the AIP1 portion the bait

| Binder | binding |
| --- | --- |
| ORC1a (protein, UniProt Q710E8 1-809) MASSLSSKAKTFKSPTKTPTKMYRKSYLSPSSTSLTPPQTPETLTPLRRSSRHVSRKINLGNDPIDLPGKESVEEINLIRKPRKRTNDIVVAEKSKKKKIDPEVSFSPVSPIRSETKKTKKKKRVYYNKVEFDETEFEIGDDVYVKRTEDANPDEEEEEDPEIEDCQICFKSHTNTIMIECDDCLGGFHLNCLKPPLKEVPEGDWICQFCEVKKSGQTLVVVPKPPEGKKLARTMKEKLLSSDLWAARIEKLWKEVDDGVYWIRARWYMIPEETVLGRQRHNLKRELYLTNDFADIEMECVLRHCFVKCPKEFSKASNDGDDVFLCEYEYDVHWGSFKRVAELADGDEDSDQEWNGRKEEEIDYSDEEIEFDDEESVRGVSKSKRGGANSRKGRFFGLEKVGMKRIPEHVRCHKQSELEKAKATLLLATRPKSLPCRSKEMEEITAFIKGSISDDQCLGRCMYIHGVPGTGKTISVLSVMKNLKAEVEAGSVSPYCFVEINGLKLASPENIYSVIYEGLSGHRVGWKKALQSLNERFAEGKKIGKENEKPCILLIDELDVLVTRNQSVLYNILDWPTKPNSKLVVLGIANTMDLPEKLLPRISSRMGIQRLCFGPYNHRQLQEIISTRLEGINAFEKTAIEFASRKVAAISGDARRALEICRRAAEVADYRLKKSNISAKSQLVIMADVEVAIQEMFQAPHIQVMKSVSKLSRIFLTAMVHELYKTGMAETSFDRVATTVSSICLTNGEAFPGWDILLKIGCDLGECRIVLCEPGEKHRLQKLQLNFPSDDVAFALKDNKDLPWLANYL | no binding |
| ORC2 (protein, UniProt Q38899 1-363) MEDIENIEEDEYGFSRNYFLAKELGGASKRSAHKLSDIHIVDEQELRETASTIEMKHSKEISELMSDYKTMYSKWVFELRCGFGLLMYGFGSKKALVEDFASASLTDYSVVVINGYLPSVNLKQVLLALAELLSELLKCKRKSSGSLSKGQETFPSRSMDDILSFLHGPQSGDKDCFICVVVHNIDGPALRDPESQQTLARLSSCSHIRLVASIDHVNAPLLWDKKMVHKQFNWLWHHVPTFAPYNVEGVFFPLVLAQGSTAQTAKTAAIVLQSLTPNGQNVFKILAEYQLSHPDEDGMPTDDLYSASRERFFVSSQVTLNSHLTEFKDHELVKTKRNSDGQECLNIPLTSDAIRQLLLDLNQ | no binding |
| ORC4 (protein, UniProt Q6EWX1 1-417) MGKETPAEKSLNLIRGRLCDPSYVFRPLSASSDSNYSKLKFIVSTSITEGCNNSMLLLGPRGSGKAAVLDLGVGDLLEQFPDSVSVIRLNGLLHSDDNCAFKEIAKQLCMEHHLLFSKMASFDDNSQFIIAMLRACGLAHKTIIFVLDEFDMFAQGKQRLLYSLLDAMQSVTSQAVVVGISSRLDADQLLEKRVRSRFSHRKFLFLPPSREELDGLFVHLLSLPADSGFPSGYVSRFNDKIKNLTSDTRFKDILKTLFNANSTVNSFLKFIFCAVSLMNLESGLLSLENFKAALSSMQRQPKLEAVRDCSVLELYLLVCMRRLEVKEQSSYNFISVMKEYKAIHDSFHTSDYYAQNVCLRAFEHLRERQVICYAENRGQSQTGEYRLQKLLISASELHQGMRSHACCPAILLKLLDH | no binding |
| ORC5 (protein, UniProt Q6EWX0 1-534) MPPKEESSKVTRRSTRSSASVTVENSEPIESHTPTIDDLTFGEESITIDAVLSNFPGRRSQIFDFIRLMGPLDCPTLPIMIYGGASTGKTSVVLQVLRHLNRPFVYSSCRTCYNPRILFESILNQSLLHRKCSLNGYSSAKRCDKPSDFVNLLREALSSVIKTLESTSETSRSDKPDEKPMGKMVYLILDNVDLIRDWDKGTIILQFLFSLYTVLKMPQLGIILISGLPPDVYYSNMGYTDPIPLYFPEYSEEDLRQIFLRNQPNRKLYSAFLDVVLKPFCRVTRRVEELSTTFSLLFRKFCEPLDDLGISPNEDMKRRLYSHLKPLIAHCLNEIFRVSSHPHDGETRGERRQKASYSSENREELEILDFHMSTSAKFLLLSAFLASRNPATLDASMFDSTGGMDNRKRKRKASEKSMEKKEIAEQEAVMKGPGSFPLERLLAIFQCIASVGDSSFGEEDEEEENTTGYDKENNNLMSDILLQVSSLCDANFLIKSGSCPLEGSIRYRSMVSEDLAQKVAKSLSFPLSKYLYRR | no binding |
| ORC6 (protein, UniProt Q9ZVH3 1-284) MDISDIGRKLSLDNNKLLIRKAAEIRRLCDAQFDSSIIGVGEICKAVICLEIAATRLQIIFDRQAAVKLSGMSEKAYSRSFNSLQNVIGIKIKLNVRELAVQFGCVRVIKSVQNVLSSYKERFLASLPASRRANADFTRPVFTAAAFYLCAKKQKLKVDKLRLIEVCGTSESEFSCVSTSMTDLCFDCVGISKEKKDAKDVKGNRDLLDVLPGKRRLEDGGYSSGDESSCYKRHKKMEEAKYEDWKSTVVNSIKKNPEKGTKRVIQASLNFPKKSETKELQVDS | no binding |
| CDT1a (protein, UniProt Q9SJW9 1-571) MSTPGSSRSIPFKSKKRLVMDSPSSKSQTGNPNPSSVALPTPEKPLENMLSRSRNRSVALSVKEIRQAAGSRRRSEDPVASSAKSRLFFDSSSSSPSKRKSSNKNAEKEKLPEKYENLGKFFEALDNSMLLSKLRGSKPTFSNISKQIEHLTERRFCYSHLAQIKHILPEAIEIKRVLIHDETTCCMKPDLHVTLNADAVEYNDKSKSESKKIALRKVFRARLADFVKAHPQGDEVPEEPLPEPFNRRKPVENSNVEVKRVSSLMEEMASIPASKLFSSPITSTPVKTTSSLAKPTSSQINIAPTPTKPTSTPAKQTLSEINILPTPVKPVSTLAKFPSTPAIIDSTPVITATPPEFASTPARLMSTSLAARPLKRSNGHTNPDDISADPPTKLVRRSLSLNFDSYPEDERTMDFTDDIPIDQVPEEDVSSDDEILSILPDKLRHAIKEQERKAIEDQNPAISLAKRRRKMIACLPKLFNVIHYLIQSIRRWVITKEELVHKIIAGHSDITDRKEVEEQLILLQEIVPEWMSEKKSSSGDVLVCINKLASPLTIRSRLEEENKQEMAPLLS | no binding |
| CDT1b (protein, UniProt Q9M1S9 1-486) MSSSSKIDSEKPVMVSESLFSTKTPIKTVKRQIFSSSPKPESVIKLPERFEILEEFFNGLDTAIRLLKLKGSSTTYANICPKIEYLTNRIFSYDHLAQMKHIYPEAIELKRVLKFVEDTCCMKPRLHIKLNTDAIVVEDTICGTKYMELRKVFHSKLVDFRKAHPKDEIPKELLPEPFNSPQRDSYSGIVSVGLGEPKLEVGGFDVHMEEIEQEEQDVNKVIPDSTLSHIESRIVETPVKDLSTPSKDLSTPIRLMSATPTLQLSKRCIELTPEGGDDNSLRSTNSLARGPSRSLNFDTFEEDAIEKDDIGNESDDKGINYEEDGLLQSVKGPSRSLNFDTLEEETIVKDDISNESGDEKSNYEGDNASDDDSLLQSMIERPKTEPEKHNLPQLVNLIHRVFHSTNRTVITKEELLYKIIANQINITDRREVEEQLSLMLQLVPDWISETKASSGDLLVRINKMSTAETVRARLEEATSHDISLIY | no binding |
